Measured values taken from the supplement of paper PMC10369915.
The other results are listed elsewhere or left out. Rule as the data show it: active = 3.2 or more and inactive = the rest. Only a few entries rise above the background.

Legend:
Experiment in all cases: enrichment score (SH2-bound / input frequency) (ratio); bacterial display of known human phosphotyrosine sites (pTyr-Var adds point mutants) read by sequencing; higher = stronger binding; tyrosines were phosphorylated by kinases first
Conditions in all cases: peptide library: pTyr-Var
SHP2 C-SH2 domain E139D = biological target: SHP2 C-SH2 domain E139D
[1] = biological target: SHP2 C-SH2 domain wild-type
SHP2 N-SH2 domain L43F = biological target: SHP2 N-SH2 domain L43F
SHP2 N-SH2 domain T42A = biological target: SHP2 N-SH2 domain T42A
SHP2 N-SH2 domain T52S = biological target: SHP2 N-SH2 domain T52S
[2] = biological target: SHP2 N-SH2 domain wild-type

Measured: enrichment score
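Also: displayed peptides selected on beads carrying the immobilized SH2 domain, with library peptides lacking any tyrosine serving as negative controls.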

GKAFIYASHIV [ZNF573_Y229]
inactive: SHP2 C-SH2 domain E139D 1.6 | [1] 1.72 | SHP2 N-SH2 domain L43F 1.73 | SHP2 N-SH2 domain T42A 1.18 | SHP2 N-SH2 domain T52S 1.15 | [2] 1.47

MSSHHCDFKKF [ZNF445_Y428_Y428C_YF]
inactive: SHP2 C-SH2 domain E139D 1.69 | [1] 1.27 | SHP2 N-SH2 domain L43F 1.56 | SHP2 N-SH2 domain T42A 1.38 | SHP2 N-SH2 domain T52S 1.61 | [2] 1.53

SGEKPYKCSVC [ZNF543_Y283_E287V]
inactive: SHP2 C-SH2 domain E139D 0.703 | [1] 0.789 | SHP2 N-SH2 domain L43F 0.837 | SHP2 N-SH2 domain T42A 0.655 | SHP2 N-SH2 domain T52S 0.731 | [2] 0.787

MSSHHYDFKKF [ZNF445_Y428_YF]
inactive: SHP2 C-SH2 domain E139D 0.533 | [1] 0.801 | SHP2 N-SH2 domain L43F 0.473 | SHP2 N-SH2 domain T42A 0.365 | SHP2 N-SH2 domain T52S 0.495 | [2] 0.555

NWGSPYKSDGC [ZNF347_Y261_N264D]
inactive: SHP2 C-SH2 domain E139D 0.9 | [1] 0.849 | SHP2 N-SH2 domain L43F 0.733 | SHP2 N-SH2 domain T42A 0.687 | SHP2 N-SH2 domain T52S 0.581 | [2] 0.791

YNDSAYNQQLI [ZPLD1_Y198_T197A]
inactive: SHP2 C-SH2 domain E139D 0.798 | [1] 0.578 | SHP2 N-SH2 domain L43F 0.729 | SHP2 N-SH2 domain T42A 0.59 | SHP2 N-SH2 domain T52S 0.89 | [2] 0.599

QLLIKYPPEEV [ZZZ3_Y670]
inactive: SHP2 C-SH2 domain E139D 1.31 | [1] 0.874 | SHP2 N-SH2 domain L43F 1.03 | SHP2 N-SH2 domain T42A 1.11 | SHP2 N-SH2 domain T52S 1.35 | [2] 0.801

FNDSTYNQQLI [ZPLD1_Y198_YF]
inactive: SHP2 C-SH2 domain E139D 0.698 | [1] 0.588 | SHP2 N-SH2 domain L43F 0.682 | SHP2 N-SH2 domain T42A 0.682 | SHP2 N-SH2 domain T52S 0.687 | [2] 0.894

VHKEGYNKLNQ [ZNF676_Y98]
inactive: SHP2 C-SH2 domain E139D 0.854 | [1] 0.97 | SHP2 N-SH2 domain L43F 1 | SHP2 N-SH2 domain T42A 0.739 | SHP2 N-SH2 domain T52S 0.765 | [2] 0.845

REGKIYEFNQV [ZNF665_Y162_H157R_YF]
inactive: SHP2 C-SH2 domain E139D 0.887 | [1] 0.847 | SHP2 N-SH2 domain L43F 0.986 | SHP2 N-SH2 domain T42A 0.836 | SHP2 N-SH2 domain T52S 0.976 | [2] 1.22

AKAFIYASHIV [ZNF573_Y229_G224A]
inactive: SHP2 C-SH2 domain E139D 1.02 | [1] 1.18 | SHP2 N-SH2 domain L43F 1.15 | SHP2 N-SH2 domain T42A 1.02 | SHP2 N-SH2 domain T52S 0.946 | [2] 1.04

QTSSNYDDAMQ [ZNF281_Y531_I527T]
inactive: SHP2 C-SH2 domain E139D 0.314 | [1] 0.19 | SHP2 N-SH2 domain L43F 0.326 | SHP2 N-SH2 domain T42A 0.233 | SHP2 N-SH2 domain T52S 0.343 | [2] 0.386

GKTFTYRSVFF [ZNF80_Y200]
inactive: SHP2 C-SH2 domain E139D 0.968 | [1] 0.976 | SHP2 N-SH2 domain L43F 0.974 | SHP2 N-SH2 domain T42A 1.02 | SHP2 N-SH2 domain T52S 1.22 | [2] 0.905

HEGKIYEFNQV [ZNF665_Y162_YF]
inactive: SHP2 C-SH2 domain E139D 0.67 | [1] 0.475 | SHP2 N-SH2 domain L43F 0.572 | SHP2 N-SH2 domain T42A 0.472 | SHP2 N-SH2 domain T52S 0.476 | [2] 0.99

YSSLGYPLPEG [ZSWIM4_Y87_P89L]
inactive: SHP2 C-SH2 domain E139D 0.948 | [1] 2.89 | SHP2 N-SH2 domain L43F 0.933 | SHP2 N-SH2 domain T42A 1.6 | SHP2 N-SH2 domain T52S 0.845 | [2] 0.834

FDFKKYGKGLR [ZNF445_Y433_YF]
inactive: SHP2 C-SH2 domain E139D 1.86 | [1] 1.34 | SHP2 N-SH2 domain L43F 1.11 | SHP2 N-SH2 domain T42A 1.13 | SHP2 N-SH2 domain T52S 1.39 | [2] 1.63

NWGSPYKSNGC [ZNF347_Y261]
inactive: SHP2 C-SH2 domain E139D 0.86 | [1] 0.737 | SHP2 N-SH2 domain L43F 0.733 | SHP2 N-SH2 domain T42A 0.649 | SHP2 N-SH2 domain T52S 0.634 | [2] 0.929

QLLIEYPPEEV [ZZZ3_Y670_K669E]
inactive: SHP2 C-SH2 domain E139D 1.03 | [1] 0.951 | SHP2 N-SH2 domain L43F 0.818 | SHP2 N-SH2 domain T42A 0.789 | SHP2 N-SH2 domain T52S 0.885 | [2] 0.908

FSSLGYPLPEG [ZSWIM4_Y87_P89L_YF]
inactive: SHP2 C-SH2 domain E139D 0.727 | [1] 0.64 | SHP2 N-SH2 domain L43F 0.544 | SHP2 N-SH2 domain T42A 0.626 | SHP2 N-SH2 domain T52S 0.64 | [2] 0.487
